Results on 1 molecule are retold here after article PMC6239180 (RNA, 2018).

In this test the target is T1, His-tagged hClp1 (human, UniProt Q92989 1-425).
T1 sequence: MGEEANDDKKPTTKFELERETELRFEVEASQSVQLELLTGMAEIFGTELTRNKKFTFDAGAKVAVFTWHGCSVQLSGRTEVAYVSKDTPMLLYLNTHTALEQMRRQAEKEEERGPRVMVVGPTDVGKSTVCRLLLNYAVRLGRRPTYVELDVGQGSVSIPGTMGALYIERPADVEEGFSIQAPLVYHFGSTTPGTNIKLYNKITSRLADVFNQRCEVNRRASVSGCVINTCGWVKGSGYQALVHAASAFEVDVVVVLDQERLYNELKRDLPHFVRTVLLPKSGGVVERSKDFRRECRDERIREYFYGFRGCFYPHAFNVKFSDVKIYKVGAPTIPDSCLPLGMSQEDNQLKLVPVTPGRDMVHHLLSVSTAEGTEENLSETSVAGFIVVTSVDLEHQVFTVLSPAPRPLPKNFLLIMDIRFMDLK
Nature of the test: SEC + other: glycerol gradient centrifugation.

B1: hPcf11 (full-length, recombinant) (natural protein)
chain: not shown
One may read the stoichiometry N as the number of molecules, sites or subunits per partner or assembly. B1: the “stoichiometry N” value is 1 hPcf11 per hClp1.
